Consider 98 compounds from PubChem BioAssay AID485344 (National Center for Advancing Translational Sciences (NCATS), 2010).

Out of some 340,000 compounds screened, about 6,900 (2%) were called active. Cut-off read from the data, not from the text of the source: active = inhibition above about 30%; inactive = below that, where a call was filed. Only a part is listed here, and it is no random draw. Entries without a call were filed so in the source.

Chain of UniProt P14416 (P14416 whole entry, looked up): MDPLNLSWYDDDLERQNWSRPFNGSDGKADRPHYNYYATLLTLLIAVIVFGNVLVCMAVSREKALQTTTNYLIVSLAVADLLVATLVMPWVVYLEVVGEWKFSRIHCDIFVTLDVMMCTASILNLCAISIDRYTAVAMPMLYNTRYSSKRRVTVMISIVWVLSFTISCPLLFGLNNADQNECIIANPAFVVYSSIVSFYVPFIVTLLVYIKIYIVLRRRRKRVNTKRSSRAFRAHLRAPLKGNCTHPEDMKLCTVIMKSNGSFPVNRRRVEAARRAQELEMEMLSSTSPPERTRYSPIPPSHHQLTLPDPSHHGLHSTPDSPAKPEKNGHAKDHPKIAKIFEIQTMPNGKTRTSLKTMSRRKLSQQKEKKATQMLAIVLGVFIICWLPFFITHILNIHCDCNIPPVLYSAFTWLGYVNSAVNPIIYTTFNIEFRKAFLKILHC

The assay has as its target D(2) dopamine receptor (Homo sapiens) (UniProt P14416). In words: HTS Assay for Allosteric Antagonists of the Human D2 Dopamine Receptor: Primary Screen for Antagonists. Note: 0% is about no effect. To be noted: HEK293 TREx D2 cells, calcium flux, dopamine EC80; at 10 µM; stronger effect = higher value. The method in brief:
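HEK293 T-REx D2 cells, tet-induced, calcium dye no-wash. Cpd pintool add, 180 s kinetic, then EC80 DA, 180 s kinetic. Ca flux read.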
Usually inhibition stands for the drop in the measured response relative to a control, in per cent. In the case of `O=C(NCCO)C(=O)NCC(c1ccc2c(c1)OCO2)N1CCOCC1` (stereo not drawn), the inhibition was -5.6%.
Under `Cc1ccc(-c2nc(CS(=O)(=O)CC(=O)NC(C)CCc3ccccc3)c(C)o2)cc1` (stereo not drawn) stands 4.91%; under `COc1ccc(/C=C/c2nc(C#N)c(N3CCC(C(N)=O)CC3)o2)cc1OC`, -13.4%; under `Cc1c(NC(=O)Nc2cccc(C(F)(F)F)c2)sc2nc3n(c(=O)c12)CCC(C)CC3` (stereo not drawn), 5.74%.
With `COc1ccc(C(CC(=O)Nc2ccccn2)N2Cc3ccccc3C2=O)cc1OC` (stereo not drawn), the inhibition stood at 6.94%.
In the case of `O=C(CCS(=O)(=O)c1ccccc1)N(Cc1cccnc1)c1nc2c(F)cccc2s1` it was -16.2%.
For `CCc1ccccc1NC(=O)Cn1nnc(C(=O)NCc2ccco2)c1N`, the inhibition was 4.85%.
In the case of `CC1CC(C)(C)NC(=S)N1CCCC(=O)NCc1ccccc1` (stereo not drawn) it was active: 36.7%.
Under `CCOC(=O)c1nnc2c(-c3ccc(Cl)cc3)c(C)nn2c1N` stands 19.7%.
Under `CC(NC(=O)CCc1cn(Cc2ccccc2Cl)c2ccccc12)c1ccccc1` (stereo not drawn) stands -10.6%; under `O=C(NCCc1ccccc1)c1ccc(CSc2nc3cccnc3n2Cc2ccccc2)cc1`, -6.62%; under `CC(C)Cc1nn2cc(-c3cccc(Br)c3)nc2s1`, 0.806%.
`CCOc1ccc(N2CC(c3nc4ccccc4n3CCOc3ccc(OC)cc3)CC2=O)cc1` (stereo not drawn): the inhibition is -1.85%.
In the case of `CCOc1ccc2nc(N3CCCC(C(=O)NCCc4ccc(OC)cc4OC)C3)sc2c1` (stereo not drawn) it was -10%; in that of `O=C(Nc1ccc(F)c(Cl)c1)c1cc(S(=O)(=O)NCc2ccc3c(c2)OCO3)ccc1F`, 5.86%.
In the case of `Cc1cc2nc(-c3ccc(NC(=O)c4ccc(OCC(C)C)cc4)cc3)oc2cc1C` it was -13.4%; in that of `CCOCCCNC(=O)c1ccc(-c2nc(CS(=O)(=O)c3ccccc3)c(C)o2)cc1`, 2.51%.
In the case of `CNC(=O)C1CCCN(c2nnc(C)c3c(C)n(-c4ccccc4)nc23)C1` (stereo not drawn) it was -8.98%.
Regarding `COc1ccc(-c2nc3sc(CCNC(=O)C(C)(C)C)c(C)n3n2)cc1`, the inhibition came to 4.03%.
As to `CCOC(=O)C1CCN(c2cc3c(cc2NC(=O)c2ccccc2Cl)n(C)c(=O)n3C)CC1`, the inhibition was found to be 16.3%.
For the compound `O=C(O)CCc1ccc(-c2ccc(Br)cc2)n1-c1ccccc1O`, the inhibition came to 16%.
Turning to `Cc1ccc(C(=O)c2sc(Nc3ccc(F)cc3)c(C#N)c2N)cc1`, the inhibition was -6.46%.
Under `Cc1cccc(CCn2c(=O)c3ccccc3n(Cc3ccccc3C)c2=O)c1` stands -2.17%.
Under `COc1ccc2c(c1)c1c(c(=O)n(Cc3ccccc3)c(=O)n1CC(=O)Nc1ccccc1F)n2C` stands 3.67%; under `Cc1ccc(OC(=O)CSc2nnc(-c3ccc4c(c3)OCO4)o2)c(C)c1`, 12.2%; under `CCOC(=O)c1cnc(NCc2ccc(OC)cc2OC)c2ccccc12`, -0.0638%.
Under `CCOc1ccccc1NC(=O)N1CC(C)Oc2ccc(Cl)cc21` (stereo not drawn) stands -13.9%; under `Cc1cccn2c(=O)cc(COc3ccc(NC(=O)COc4ccc(F)cc4)cc3)nc12`, -9.23%.
`O=C1CC(c2ccccc2)Cc2[nH]c(=O)c(-c3nc(-c4ccc(Cl)c(Cl)c4)cs3)cc21` (stereo not drawn): the inhibition was -14.2%.
In the case of `Cc1cc(C)c2oc(C(=O)NCCc3ccc(S(N)(=O)=O)cc3)cc(=O)c2c1` it was 6.5%.
Under `COc1ccc(Cl)cc1NC(=O)C(=O)NCc1ccc(Cl)cc1` stands -7.55%; under `COCCNS(=O)(=O)c1cc(-c2nn3c(C)nnc3c3ccccc23)ccc1C`, 4.06%.
In the case of `Cc1ccc(NC(=O)N2CCN(C(=O)c3nsc4ccccc34)CC2)cc1C` it was 6.76%; in that of `COc1ccccc1NC(=O)C(=O)c1cc(C)n(-c2cc(C)cc(C)c2)c1C`, 11%; in that of `CCOc1cccc(-c2nc3ccccc3c(=O)o2)c1`, 6.5%.
As for `COc1cccc(C(=O)Nc2nc(-c3nnn(-c4cc(C)ccc4C)c3C)ns2)c1`, the inhibition was -0.348%.
Turning to `O=C1CN(C(=O)c2cccc(Br)c2)C(c2ccccc2)c2cc(Cl)ccc2N1` (stereo not drawn), the inhibition is -18.6%.
Regarding `N#Cc1c(-n2ncnc2-c2cccc(Cl)c2)sc2c1CCCCC2`, the inhibition came out at 10.9%.
In the case of `COC(=O)c1c(-c2ccc(Cl)cc2)noc1N1CCN(c2ccccc2F)CC1` it was 6.18%.
In the case of `CCOC(=O)C1=C(CN(CC)Cc2ccccc2)NC(=O)NC1c1ccc(OC)cc1` (stereo not drawn) it was -11.5%; in that of `COc1ccc2c(c1)c1c(c(=O)n(-c3ccc(F)c(Cl)c3)c(=O)n1Cc1ccccc1F)n2C`, -12.2%.
In the case of `CCCCNC(=O)c1ccc2c(c1)NC(=O)C(C(C)C)N2` (stereo not drawn) it was -3.86%.
On to `COc1ccc(C(=O)Nc2ccc(-c3nc4ncccc4o3)cc2)cc1`, for which the inhibition came to 26.3%.
Under `CC(C)(C)OC(=O)N1CCC(c2c(C(=O)NCc3ccccn3)cnn2-c2ccccc2)CC1` stands -0.953%; under `COc1ccccc1Nc1nn2c(=O)c3ccc(C(=O)NCc4cccs4)cc3nc2s1`, 7.33%.
With `COC(=O)c1cc(S(=O)(=O)NCC2CCN(Cc3cc(C)ccc3C)CC2)c[nH]1`, the inhibition worked out at 5.35%.
On to `COc1ccc(-c2cn3c(n2)sc2cc(C(=O)NCc4ccccc4OC)ccc23)cc1`, for which the inhibition was 17.2%.
Under `Cc1ccc2c(=O)c(C(=O)c3ccc(F)cc3)cn(CC(=O)NCc3ccccc3)c2n1` stands -10.8%.
As for `COc1cccc(Cn2c(CNC(=O)C(C)C)nc3cccnc32)c1`, the inhibition is -9.99%.
With `COc1ccc(OC)c(S(=O)(=O)NCCc2sc(-c3ccc(C)cc3)nc2C)c1`, the inhibition is 3.1%.
As to `O=C(Nc1cc(Cl)cc(Cl)c1)c1ccc(F)c(S(=O)(=O)NC2CCCC2)c1`, the inhibition was -5.83%.
Under `Cc1cccc(CN2C(=O)c3ccccc3Sc3ccc(C(=O)N4CCCC4)cc32)c1` stands -23.1%.
Under `CCOC(=O)c1c(NC(=O)COc2ccccc2F)sc2c1CCCC2` stands -8.77%; under `COCCN1C(=O)c2[nH]nc(-c3ccccc3O)c2C1c1ccc(OCc2ccccc2)c(OC)c1` (stereo not drawn), -24.3%; under `CCc1ccc(N(CC)C(=O)c2ccc3c(=O)n4c(nc3c2)CCCCC4)cc1`, -0.668%.
Under `Cc1ccc(S(=O)(=O)c2cnc(SCC(=O)Nc3cc(C)cc(C)c3)nc2N)cc1` stands 27%; under `Cc1cccc(OCc2ccc(-c3nc(C#N)c(NCCN(C)C)o3)o2)c1`, 8.56%.
As for `COc1ccc2c(c1)c1c(c(=O)n(-c3ccccc3C)c(=O)n1CC(=O)NCc1ccc(C)cc1)n2C`, the inhibition turned out to be 12.7%.
On to `Cc1cc(Nc2ccc(C)c(C)c2)n2cnnc2n1`, for which the inhibition is -4.09%.
Under `CCOC(=O)c1c(C)oc2nc(C)nc(NCc3ccccc3Cl)c12` stands -5%; under `COC(=O)c1ccccc1NC(=O)Cn1cc(S(=O)(=O)Cc2ccccc2F)c2ccccc21`, -1.5%.
Under `Cc1ccc2cccc(NC(=O)COc3ccccc3[N+](=O)[O-])c2n1` stands 1.48%; under `CCCCc1ccc(-n2nc3cc(C)c(NC(=O)Cc4ccccc4)cc3n2)cc1`, -3.6%.
In the case of `CCN(CC)c1ccc(NC(=O)CSc2nnc(C)c(=O)[nH]2)cc1` it was 7.24%; in that of `CCCN(CCC)C(=O)CSc1nnc2cc(C)c3cc(C)cc(C)c3n12`, -0.889%.
Consider `COc1cccc(OCCCCn2c(-c3ccc(Cl)cc3)nc3ccccc3c2=O)c1`, for which the inhibition is -8.35%.
Under `Cc1ccc(-c2onc(C)c2C)cc1S(=O)(=O)NCc1ccco1` stands -13.9%; under `O=S(=O)(NCCSc1nnnn1-c1ccccc1)c1ccc(F)cc1`, 1.42%; under `CC(=O)Nc1ccc(S(=O)(=O)NC2(C(F)(F)F)NC(=O)N(c3ccc(C)cc3)C2=O)cc1` (stereo not drawn), 1.18%.
In the case of `O=C(c1cccc([N+](=O)[O-])c1)N1c2ncnn2C2(CCCCC2)[C@@H]2CCCC[C@@H]21` it was 10.3%; in that of `Cc1ccc(S(=O)(=O)c2cnc(SCC(=O)Nc3ccc4c(c3)OCCO4)[nH]c2=O)cc1`, -4.93%; in that of `CN(C1CCCCC1)S(=O)(=O)c1ccc2c(c1)c(=O)c(C(=O)NCCc1ccc(Cl)cc1)cn2C`, 2%.
For the compound `CCOC(=O)C1CCN(Cc2cccc(Oc3ccc(Cl)cc3)c2)CC1`, the inhibition is active: 71.7%.
In the case of `CSCCC(NS(=O)(=O)c1ccc2c(c1)oc(=O)n2C)C(=O)NCCc1ccc(C)cc1` (stereo not drawn) it was 3.19%; in that of `CCS(=O)(=O)N1CCC(C(=O)NCCC(C)C)CC1`, -11.7%.
Turning to `O=S(=O)(Cc1ccccc1)N1CCN(C2Cc3ccccc3C2)CC1`, the inhibition is active: 30.3%.
Take `Cc1ccc(-c2nnc(Nc3cccc(Cl)c3)c3ccccc23)cc1S(=O)(=O)NCC1CCCO1` (stereo not drawn): the inhibition was 8.44%.
In the case of `COc1cccc(CN(Cc2ccco2)c2cnc(S(C)(=O)=O)nc2C(=O)Nc2cccc(Cl)c2C)c1` it was -1.68%; in that of `Cn1c(SCC(=O)N2CCCc3ccccc32)ncc(C(=O)Nc2ccc(Cl)cc2)c1=O`, 9.58%.
For `CCc1nc2nc(C)cc(Nc3ccc(OC)cc3)n2n1`, the inhibition is -2.54%.
In the case of `CCCCOc1ccccc1Cn1c(=O)oc2ccc(C)cc21` it was active: 31.4%; in that of `CS(=O)(=O)c1ncc(N(Cc2ccco2)Cc2ccco2)c(C(=O)Nc2ccccc2Br)n1`, 22.2%.
In the case of `Cc1ccc(-n2ncc(C(=O)NC3CCCC3)c2C2CCN(C(=O)OC(C)(C)C)CC2)c(C)c1`, the inhibition was -6.88%.
As to `CC1=C(C(=O)OCc2ccc(C)cc2)C(c2c(Cl)cccc2Cl)CC(=O)N1` (stereo not drawn), the inhibition is -3.55%.
In the case of `Cc1ccc(C)c(NS(=O)(=O)c2ccc3c4c(cccc24)C(=O)N3)c1`, the inhibition worked out at 6.26%.
Under `CNc1nc(Oc2ccc(=O)n(C)n2)nc(N2CCOCC2)n1` stands 3.17%; under `COc1cccc(Cn2nnc3c(=O)[nH]c(C4CCCN(C(=O)c5ccc(C)cc5)C4)nc32)c1` (stereo not drawn), 11.4%.
In the case of `CCOc1cccc2sc(Nc3nc4ccc(NC(C)=O)cc4s3)nc12` it was active: 30.8%; in that of `Clc1ccc(CN2CCN(c3ncccn3)CC2)cc1`, active: 84.9%; in that of `COc1ccc(OC)c(NC(=O)c2cc3c(s2)-c2ccccc2SC3)c1`, -9.36%.
For the compound `Cc1c(NS(=O)(=O)c2cccc(C(=O)O)c2)c(=O)n(-c2ccccc2)n1C`, the inhibition was found to be 0.275%.
In the case of `COc1ccccc1-c1c(C)nn2c(N3CCN(c4cccc(Cl)c4)CC3)cc(C)nc12` it was 4.3%; in that of `O=C(CSc1nnc(CNC(=O)c2c(F)cccc2Cl)o1)Nc1ccccc1F`, 5.82%.
In the case of `Cc1ccc(OCCCCN2CCCC(C)C2)c([N+](=O)[O-])c1` (stereo not drawn), the inhibition is active: 90.8%.
As for `CCC(=O)N1c2ccccc2CC1C(=O)NCc1ccccc1C` (stereo not drawn), the inhibition is 26.6%.
Under `O=C(Nc1cc(-c2nc3cc(Cl)ccc3o2)ccc1Cl)c1cccs1` stands -8.07%.
For `CC1CCCC(C)N1C(=S)NCc1ccco1` (stereo not drawn), the inhibition was active: 30.5%.
As for `C#CC(C)(CC)NC(=O)Cn1nnc(-c2ccc(OCc3ccccc3F)cc2)n1` (stereo not drawn), the inhibition is -3.82%.
